In publication PMC11149917, “Translational and Therapeutic Evaluation of RAS-GTP Inhibition by RMC-6236 in RAS-Driven Cancers” (Cancer Discovery, 2024):
Where “and” joins values, the source holds several entries; their conditions need not be identical. Equal values may be shown once. This continues a long series; more values of the same kind are listed elsewhere.

Experiment: Mouse blood and tissue PK (LC/MS-MS)
Assay type: in vivo
Experimental: For single-dose PKPD study, mice were randomized and assigned into groups (n = 3/dose/time point). […] Blood and tissues, including the tumor, brain, colon, ear skin, and muscle, were harvested at indicated time points. […] The whole blood, tumor, brain, colon, and ear skin concentrations of RMC-6236 were determined using liquid chromatography–tandem mass spectrometry (LC/MS-MS) methods. […] After thorough mixing and centrifugation, the supernatant was diluted with water or directly analyzed on a Sciex 5500 or Sciex 6500+ triple quadrupole mass spectrometer equipped with an ACQUITY or Shimadzu UPLC system. […] Bioanalysis on blood and tissue samples from xenograft models was run at Pharmaron and Wuxi AppTec. Concentrations reported as below the quantification limit were treated as zero for PK analysis. PK parameters were calculated by noncompartmental analysis of the concentration–time profiles using Phoenix WinNonLin (version 8.3 Certara). Apparent terminal elimination half-life (t1/2) values were calculated as ln(2)/k, where k represents the terminal elimination rate constant. Area under the concentration–time curve (AUC) values were estimated using a linear trapezoidal method. AUClast values were calculated from the dosing time to the last quantifiable concentration. Maximum concentration (Cmax) was recorded as observed.

## CCn1c(-c2cc(N3CCN(C)CC3)cnc2[C@H](C)OC)c2c3cc(ccc31)-c1csc(n1)C[C@H](NC(=O)[C@H]1C[C@@H]1C)C(=O)N1CCC[C@H](N1)C(=O)OCC(C)(C)C2 [RMC-6236]
NCI-H441 xenograft tumor, study NCI-H441#8, 40 mg/kg, 8h
  RMC-6236 (nM) Tumor: 3243 nM and 4081 nM
NCI-H441 xenograft tumor, study NCI-H441#10, 0.3 mg/kg, 24h
  RMC-6236 (nM) Tumor: 40.7 nM and 58.2 nM
NCI-H441 xenograft tumor, study NCI-H441#10, 1 mg/kg, 8h
  RMC-6236 (nM) Tumor: 157 nM and 88.8 nM
NCI-H441 xenograft tumor, study NCI-H441#10, 10 mg/kg, 8h
  RMC-6236 (nM) Tumor: 808 nM and 727 nM
NCI-H441 xenograft tumor, study NCI-H441#10, 10 mg/kg, 24h
  RMC-6236 (nM) Tumor: 343 nM and 384 nM
NCI-H441 xenograft tumor, study NCI-H441#10, 10 mg/kg, 48h
  RMC-6236 (nM) Tumor: 152 nM and 104 nM
NCI-H441 xenograft tumor, study NCI-H441#13, 0.3 mg/kg, 8h
  RMC-6236 (nM) Tumor: 49 nM and 69.4 nM
NCI-H441 xenograft tumor, study NCI-H441#13, 1 mg/kg, 8h
  RMC-6236 (nM) Tumor: 93.2 nM and 61.8 nM
Sheet Ear Skin, model Capan-2, study Capan-2 #3_PHA 2023, 3 mg/kg, 2h
  RMC-6236 (nM) Tumor: 208.369 nM and 141.79 nM
Sheet Ear Skin, model Capan-2, study Capan-2 #3_PHA 2023, 3 mg/kg, 4h
  RMC-6236 (nM) Tumor: 246.591 nM and 226.864 nM
Sheet Ear Skin, model Capan-2, study Capan-2 #3_PHA 2023, 3 mg/kg, 8h
  RMC-6236 (nM) Tumor: 226.864 nM and 210.835 nM
Sheet Ear Skin, model Capan-2, study Capan-2 #3_PHA 2023, 3 mg/kg, 24h
  RMC-6236 (nM) Tumor: 45.0028 nM and 56.9625 nM
Sheet Ear Skin, model Capan-2, study Capan-2 #3_PHA 2023, 10 mg/kg, 2h
  RMC-6236 (nM) Tumor: 649.767 nM and 768.131 nM
Sheet Ear Skin, model Capan-2, study Capan-2 #3_PHA 2023, 10 mg/kg, 4h
  RMC-6236 (nM) Tumor: 1150.35 nM and 812.517 nM
Sheet Ear Skin, model Capan-2, study Capan-2 #3_PHA 2023, 10 mg/kg, 8h
  RMC-6236 (nM) Tumor: 583.187 nM and 744.704 nM
Sheet Ear Skin, model Capan-2, study Capan-2 #3_PHA 2023, 10 mg/kg, 24h
  RMC-6236 (nM) Tumor: 124.528 nM and 245.358 nM
Sheet Ear Skin, model Capan-2, study Capan-2 #3_PHA 2023, 25 mg/kg, 2h
  RMC-6236 (nM) Tumor: 2170 nM and 2527.56 nM
Sheet Ear Skin, model Capan-2, study Capan-2 #3_PHA 2023, 25 mg/kg, 4h
  RMC-6236 (nM) Tumor: 3809.83 nM and 2897.44 nM
Sheet Ear Skin, model Capan-2, study Capan-2 #3_PHA 2023, 25 mg/kg, 8h
  RMC-6236 (nM) Tumor: 1985.06 nM and 2034.37 nM
Sheet Ear Skin, model Capan-2, study Capan-2 #3_PHA 2023, 25 mg/kg, 24h
  RMC-6236 (nM) Tumor: 818.682 nM and 430.301 nM
Sheet Ear Skin, model Capan-2, study Capan-2 #3_PHA 2023, 25 mg/kg, 48h
  RMC-6236 (nM) Tumor: 180.011 nM and 125.761 nM
Sheet Ear Skin, model Capan-2, study Capan-2 #3_PHA 2023, 50 mg/kg, 2h
  RMC-6236 (nM) Tumor: 5178.41 nM and 5646.93 nM
Sheet Ear Skin, model Capan-2, study Capan-2 #3_PHA 2023, 50 mg/kg, 4h
  RMC-6236 (nM) Tumor: 5314.03 nM and 6929.2 nM
Sheet Ear Skin, model Capan-2, study Capan-2 #3_PHA 2023, 50 mg/kg, 8h
  RMC-6236 (nM) Tumor: 5264.72 nM and 4031.76 nM
Sheet Ear Skin, model Capan-2, study Capan-2 #3_PHA 2023, 50 mg/kg, 24h
  RMC-6236 (nM) Tumor: 1086.23 nM and 1294.6 nM
Sheet Ear Skin, model Capan-2, study Capan-2 #3_PHA 2023, 50 mg/kg, 48h
  RMC-6236 (nM) Tumor: 377.284 nM and 445.097 nM
Sheet Ear Skin, model Capan-2, study Capan-2 #3_PHA 2023, 100 mg/kg, 2h
  RMC-6236 (nM) Tumor: 12329.5 nM and 13932.4 nM
Sheet Ear Skin, model Capan-2, study Capan-2 #3_PHA 2023, 100 mg/kg, 8h
  RMC-6236 (nM) Tumor: 8297.78 nM and 11552.8 nM
Sheet Ear Skin, model Capan-2, study Capan-2 #3_PHA 2023, 100 mg/kg, 24h
  RMC-6236 (nM) Tumor: 1553.52 nM
Sheet Ear Skin, model KP-4, study KP-4 #5, 25 mg/kg, 4h
  RMC-6236 (nM) Tumor: 2332.75 nM and 1993.69 nM
Sheet Ear Skin, model KP-4, study KP-4 #5, 25 mg/kg, 8h
  RMC-6236 (nM) Tumor: 2441.25 nM and 2617.56 nM
Sheet Ear Skin, model KP-4, study KP-4 #5, 25 mg/kg, 48h
  RMC-6236 (nM) Tumor: 162.75 nM and 256.331 nM
Sheet colon, Capan-2, Capan-2 #3_PHA 2023, 3 mg/kg, 2h
  RMC-6236 (nM) Tumor: 1565.85 nM and 1134.32 nM
Sheet colon, Capan-2, Capan-2 #3_PHA 2023, 3 mg/kg, 8h
  RMC-6236 (nM) Tumor: 865.534 nM and 498.114 nM
Sheet colon, Capan-2, Capan-2 #3_PHA 2023, 10 mg/kg, 4h
  RMC-6236 (nM) Tumor: 4586.59 nM and 2317.95 nM
Sheet colon, Capan-2, Capan-2 #3_PHA 2023, 10 mg/kg, 8h
  RMC-6236 (nM) Tumor: 2243.98 nM and 1911.08 nM
Sheet colon, Capan-2, Capan-2 #3_PHA 2023, 25 mg/kg, 2h
  RMC-6236 (nM) Tumor: 7040.17 nM and 8347.1 nM
Sheet colon, Capan-2, Capan-2 #3_PHA 2023, 25 mg/kg, 4h
  RMC-6236 (nM) Tumor: 5745.57 nM and 4808.52 nM
Sheet colon, Capan-2, Capan-2 #3_PHA 2023, 25 mg/kg, 8h
  RMC-6236 (nM) Tumor: 4389.32 nM and 4007.1 nM
Sheet colon, Capan-2, Capan-2 #3_PHA 2023, 50 mg/kg, 2h
  RMC-6236 (nM) Tumor: 11219.9 nM and 18371 nM
Sheet colon, Capan-2, Capan-2 #3_PHA 2023, 50 mg/kg, 4h
  RMC-6236 (nM) Tumor: 10307.5 nM and 6510 nM
Sheet colon, Capan-2, Capan-2 #3_PHA 2023, 50 mg/kg, 24h
  RMC-6236 (nM) Tumor: 126.994 nM and 101.842 nM
Sheet colon, Capan-2, Capan-2 #3_PHA 2023, 100 mg/kg, 2h
  RMC-6236 (nM) Tumor: 24782.4 nM and 20713.6 nM
Sheet colon, Capan-2, Capan-2 #3_PHA 2023, 100 mg/kg, 4h
  RMC-6236 (nM) Tumor: 28111.4 nM and 21823.3 nM
Sheet colon, Capan-2, Capan-2 #3_PHA 2023, 100 mg/kg, 24h
  RMC-6236 (nM) Tumor: 371.119 nM and 330.432 nM
Sheet colon, KP-4, KP-4 #5, 25 mg/kg, 4h
  RMC-6236 (nM) Tumor: 6252.31 nM and 5628.44 nM
